Test results from a collection of fitness landscapes (doi:10.1038/s41467-024-54723-y).
The full ranking holds about 18,000 sequences; the median of “TetR repression strength (sort-seq, GFP reporter)” is about 0.23, and the highest 2% start at about 0.68. The list shows a part of the results.

What follows are sequences tested against TetR (class B, Tn10) (UniProt P04483) (assay: TetR repression strength (sort-seq, GFP reporter) (relative to tetO2 = 1); higher = stronger repression). Conditions: E. coli.
In short: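 In LB with 50 µg/mL chloramphenicol, E. coli SIG10-MAX holding a low-copy library with eight randomized operator positions between a constitutive promoter and sfGFP, plus constitutive TetR, grew for 5 h at 37 °C. FACS then sorted 10^6 cells into 13 fluorescence bins for Illumina sequencing of each bin. Repression strength equals the top bin index plus one less the read-weighted mean bin, normalized to the unaltered operator. Values from three independent transformations were averaged when reads were ≥30 in every replicate and the CV was ≤0.5.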

UniProt P04483, sequence (P04483 whole entry): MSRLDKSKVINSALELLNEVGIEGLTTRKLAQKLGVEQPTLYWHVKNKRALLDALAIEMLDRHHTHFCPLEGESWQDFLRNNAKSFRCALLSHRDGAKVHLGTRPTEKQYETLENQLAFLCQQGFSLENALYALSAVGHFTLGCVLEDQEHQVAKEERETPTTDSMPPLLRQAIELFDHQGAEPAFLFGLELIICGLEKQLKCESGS

Sequence | TetR repression strength
TCCCATGGAGTATAAGAGA | 0.383
TCCCTCGTAGTGAAGGAGA | 0.185
TCCCTGCCAGTAAGGGAGA | 0.266
TCCCGCGAAGTGATCGAGA | 0.252
TCCCGAGAAGTGAAAGAGA | 0.0859
TCCCTAAAAGTAACTGAGA | 0.464
TCCCTGGGAGTGCCGGAGA | 0.0926
TCCCTTATAGTAGTGGAGA | 0.0817
TCCCGCAAAGTGGTAGAGA | 0.28
TCCCTTGCAGTACGGGAGA | 0.1
TCCCTCGGAGTAGGTGAGA | 0.244
TCCCAGGGAGTGAATGAGA | 0.272
TCCCTGGGAGTGTGCGAGA | 0.246
TCCCAACCAGTGATGGAGA | 0.288
TCCCCTGGAGTGGCCGAGA | 0.166
TCCCATCTAGTCCGTGAGA | 0.174
TCCCTCTTAGTGTGCGAGA | 0.502
TCCCCGCTAGTACTGGAGA | 0.24
TCCCTCAGAGTTGAGGAGA | 0.287
TCCCCTGGAGTACTGGAGA | 0.0983
TCCCGGAAAGTAAGCGAGA | 0.0296
TCCCGCCGAGTAGCGGAGA | 0.244
TCCCGAACAGTGAATGAGA | 0.315
TCCCTAGAAGTGCCAGAGA | 0.393
TCCCAGATAGTGTCGGAGA | 0.125
TCCCTGTGAGTCCCGGAGA | 0.0461

Sequence | TetR repression strength
TCCCATCAAGTGGGAGAGA | 0.187
TCCCGACCAGTCGAAGAGA | 0.203
TCCCTAGTAGTTGTGGAGA | 0.283
TCCCGGGTAGTATAGGAGA | 0.175
TCCCACTTAGTGCGCGAGA | 0.226
TCCCCGGGAGTGGGCGAGA | 0.993
TCCCATTCAGTGACGGAGA | 0.255
TCCCCCTCAGTTGTAGAGA | 0.237
TCCCTTATAGTGTGCGAGA | 0.0407
TCCCCAGGAGTGAAAGAGA | 0.156
TCCCGGCAAGTGCTCGAGA | 0.114
TCCCGACGAGTGGGTGAGA | 0.195
TCCCAAATAGTGTCGGAGA | 0.248
TCCCATATAGTATATGAGA | 0.455
TCCCCATCAGTAACGGAGA | 0.304
TCCCTAACAGTGGTAGAGA | 0.415
TCCCATTTAGTTCATGAGA | 0.278
TCCCTAGCAGTCGTCGAGA | 0.213
TCCCGGCTAGTGAAGGAGA | 0.585
TCCCAGTCAGTACGAGAGA | 0.179
TCCCATCAAGTGTCGGAGA | 0.134
TCCCGATAAGTAGGTGAGA | 0.183
TCCCATCAAGTATCTGAGA | 0.0968
TCCCTGACAGTCGACGAGA | 0.271
TCCCGGTTAGTTGTGGAGA | 0.232
TCCCTGGTAGTTTGAGAGA | 0.211

Sequence | TetR repression strength
TCCCAGCGAGTGTGCGAGA | 0.164
TCCCACTGAGTTCGAGAGA | 0.07
TCCCACTTAGTTGGAGAGA | 0.155
TCCCCGCCAGTTTATGAGA | 0.371
TCCCCCATAGTGAGGGAGA | 0.0787
TCCCGGCGAGTGCTTGAGA | 0.21
TCCCAAGTAGTTAGGGAGA | 0.234
TCCCTGTCAGTCAGAGAGA | 0.248
TCCCCGAAAGTCTATGAGA | 0.212
TCCCAACGAGTGGATGAGA | 0.203
TCCCATCGAGTACGTGAGA | 0.323
TCCCCCCGAGTTGTGGAGA | 0.314
TCCCTTCGAGTGCAGGAGA | 0.3
TCCCGTGTAGTACGTGAGA | 0.13
TCCCGCAGAGTGTCGGAGA | 0.444
TCCCCAACAGTGCGGGAGA | 0.15
TCCCTAGTAGTTGTCGAGA | 0.207
TCCCTTATAGTGGAAGAGA | 0.048
TCCCGCGTAGTGCCGGAGA | 0.138
TCCCTTAGAGTTAGGGAGA | 0.112
TCCCCTCAAGTCAAAGAGA | 0.342
TCCCTGGGAGTGAAGGAGA | 0.179
TCCCGTTCAGTCTGCGAGA | 0.175
TCCCCTATAGTGGCTGAGA | 0.143
TCCCATACAGTGTATGAGA | 0.0352
TCCCAAGCAGTGGGAGAGA | 0.337

Sequence | TetR repression strength
TCCCAAGTAGTATAGGAGA | 0.263
TCCCTAAAAGTCGAGGAGA | 0.276
TCCCGTATAGTGCTGGAGA | 0.301
TCCCTTTTAGTGGTTGAGA | 0.283
TCCCATGAAGTAAGGGAGA | 0.284
TCCCGCCCAGTGTGCGAGA | 0.217
TCCCATTAAGTTCTTGAGA | 0.183
TCCCTTAGAGTTAGTGAGA | 0.177
TCCCTTAAAGTCCTAGAGA | 0.211
TCCCTCCGAGTGTCTGAGA | 0.34
TCCCCATGAGTAGGAGAGA | 0.0259
TCCCAGTTAGTCGACGAGA | 0.257
TCCCGGCGAGTGGACGAGA | 0.372
TCCCCTAGAGTCTAAGAGA | 0.332
TCCCTGGCAGTAATAGAGA | 0.337
TCCCTGGGAGTGTCCGAGA | 0.663
TCCCGGGCAGTGGTCGAGA | 0.16
TCCCTTGGAGTGGCAGAGA | 0.177
TCCCAACTAGTTGGTGAGA | 0.297
TCCCTGTTAGTTCGGGAGA | 0.196
TCCCCAATAGTCCTGGAGA | 0.198
TCCCGGGGAGTAAATGAGA | 0.244
TCCCCTGCAGTAGTGGAGA | 0.136
TCCCACATAGTGGGGGAGA | 0.101
TCCCTACTAGTGGATGAGA | 0.527
TCCCGGGGAGTAGGCGAGA | 0.264

Sequence | TetR repression strength
TCCCGAAGAGTAATAGAGA | 0.194
TCCCGCAAAGTAAGCGAGA | 0.115
TCCCCCGCAGTGGGTGAGA | 0.141
TCCCCGGTAGTTCTTGAGA | 0.316
TCCCGGTCAGTGACAGAGA | 0.666
TCCCCAATAGTAGATGAGA | 0.672
TCCCTATAAGTTATTGAGA | 0.433
TCCCACGAAGTGAGTGAGA | 0.104
TCCCGATGAGTTGGCGAGA | 0.119
TCCCGGGTAGTCTCTGAGA | 0.279
TCCCTGGTAGTATTTGAGA | 0.273
TCCCGTCTAGTTTCCGAGA | 0.169
TCCCGAGCAGTAAGGGAGA | 0.228
TCCCGGAGAGTTAGCGAGA | 0.253
TCCCTTCGAGTCGACGAGA | 0.0548
TCCCATGGAGTGTCCGAGA | 0.0607
TCCCCTTTAGTAGGGGAGA | 0.145
TCCCTCAGAGTCGGAGAGA | 0.485
TCCCTCTCAGTGTACGAGA | 0.509
TCCCTAACAGTGTGCGAGA | 0.366
TCCCAGGAAGTGTCGGAGA | 0.141
TCCCGGACAGTTAGGGAGA | 0.208
TCCCGCGAAGTGAAAGAGA | 0.138
TCCCCGACAGTAGTGGAGA | 0.208
TCCCAGCTAGTGTCGGAGA | 0.162
TCCCGTCTAGTTCTAGAGA | 0.36

Sequence | TetR repression strength
TCCCAGGGAGTGGAGGAGA | 0.0995
TCCCAGAGAGTTGGTGAGA | 0.381
TCCCCCCAAGTACGAGAGA | 0.263
TCCCAGCGAGTAGACGAGA | 1.03
TCCCTGAGAGTTGGGGAGA | 0.204
TCCCCGTCAGTACGTGAGA | 0.117
TCCCAAACAGTGGGTGAGA | 0.224
TCCCGACAAGTGCCTGAGA | 0.0444
TCCCGTTGAGTTCACGAGA | 0.104
TCCCGTTGAGTAGAAGAGA | 0.061
TCCCTACGAGTTTGGGAGA | 0.292
TCCCTGCCAGTGAGCGAGA | 0.0833
TCCCTTTGAGTGGGCGAGA | 0.247
TCCCTGGGAGTCACAGAGA | 0.212
TCCCGAGGAGTCTCTGAGA | 0.172
TCCCCAATAGTGCATGAGA | 0.139
TCCCGCTAAGTGGAGGAGA | 0.0766
TCCCCGTGAGTTAAGGAGA | 0.217
TCCCCTATAGTAGCTGAGA | 0.3
TCCCCGCCAGTGCTAGAGA | 0.164
TCCCACCGAGTTTTGGAGA | 0.347
TCCCGGTGAGTGGCTGAGA | 0.436
TCCCTTACAGTACATGAGA | 0.197
TCCCCAAGAGTAGCTGAGA | 0.0943
TCCCGAGAAGTACTAGAGA | 0.207
TCCCAGGGAGTAAACGAGA | 0.422

Sequence | TetR repression strength
TCCCCAGAAGTGGTGGAGA | 0.326
TCCCCCCAAGTCGTGGAGA | 0.234
TCCCGTCTAGTATGAGAGA | 0.244
TCCCTTACAGTAGGGGAGA | 0.095
TCCCGCGAAGTAGGGGAGA | 0.104
TCCCGGGTAGTCAGCGAGA | 0.425
TCCCCGCTAGTTTAGGAGA | 0.158
TCCCGGACAGTAGGCGAGA | 0.0814
TCCCTCATAGTGAAGGAGA | 0.477
TCCCCGTAAGTGGTTGAGA | 0.155
TCCCCTCAAGTTCGGGAGA | 0.204
TCCCTGTCAGTTAAAGAGA | 0.383
TCCCAAGTAGTGTGGGAGA | 0.256
TCCCATTTAGTTCGGGAGA | 1.09
TCCCGCTAAGTTAACGAGA | 0.407
TCCCATCGAGTTATGGAGA | 0.575
TCCCGACGAGTCGGCGAGA | 0.0838
TCCCTATTAGTCAGGGAGA | 0.144
TCCCATGCAGTGGACGAGA | 0.0613
TCCCATTTAGTCAGAGAGA | 0.321
TCCCCCTTAGTTGTCGAGA | 0.307
TCCCTTGAAGTACTGGAGA | 0.228
TCCCCGGGAGTGTTCGAGA | 0.0396
TCCCGAAGAGTTCGCGAGA | 0.0791
TCCCACGTAGTGTTGGAGA | 0.155
TCCCTATCAGTGCGAGAGA | 0.452

Sequence | TetR repression strength
TCCCGCTAAGTCGAGGAGA | 0.118
TCCCGAGCAGTCAAGGAGA | 0.329
TCCCATTAAGTCAGGGAGA | 0.2
TCCCCATAAGTATTGGAGA | 0.32
TCCCACGTAGTGTCGGAGA | 0.134
TCCCCAGGAGTTTCTGAGA | 0.59
TCCCTTGGAGTAGGGGAGA | 0.274
TCCCGAAGAGTGCTCGAGA | 0.813
TCCCCGATAGTTGAGGAGA | 0.0265
TCCCGGCCAGTGTATGAGA | 0.227
TCCCCTATAGTGCAGGAGA | 0.217
TCCCGGCGAGTTAGTGAGA | 0.343
TCCCTCGGAGTCCCCGAGA | 0.416
TCCCTCTAAGTGCTTGAGA | 0.303
TCCCCGGGAGTAGATGAGA | 0.0346
TCCCATAGAGTGGGGGAGA | 0.137
TCCCCTTAAGTACAGGAGA | 0.72
TCCCAGCGAGTAGCCGAGA | 0.216
TCCCCGGCAGTAGATGAGA | 0.195
TCCCTCGTAGTAGTAGAGA | 0.204
TCCCCGACAGTGTGCGAGA | 0.104
TCCCAAACAGTTCCTGAGA | 0.221
